In PubChem BioAssay AID686978 (National Center for Advancing Translational Sciences (NCATS), 2013):
The whole screen tested about 420,000 compounds, of which about 64,000 (15%) were called active. Inconclusive means that the source gave no clear call. Such entries were picked first, then a sample of the others. Calls follow the shape of the dose curve; as a rule, active = well fitted inhibition curve with a large enough effect; inconclusive = small, poorly fitted or top-dose-only effect; inactive = flat fitted curve, though single readings scatter. No potency is given beside an inconclusive call; the fits are too rough.

Assay: qHTS for Inhibitors of human tyrosyl-DNA phosphodiesterase 1 (TDP1): qHTS in cells in absence of CPT; also: nearly all actives have a fitted effect of over 55% in size
Details: DT40 Tdp1-/- hTDP1 cells, no CPT, ATP luminescence, 48 h; activity change, negative = growth inhibition: at 46.2 µM (top of the series) unless noted
Procedure, shortened: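 Readout: luminescence from CellTiter-Glo after 30 min in the dark at RT. Cells: DT40 Tdp1-/- with stable hTDP1, 400/well. Exposure: compounds alone, ≥48 hr, 37 °C.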
% is scaled to controls: 0 for no effect and ±100 for the full control effect; potency is read from the fitted curve at half-maximal effect; tags tell the direction and shape of the fitted curve.

With `COc1ccccc1CC(=O)NCCc1ccccc1` as the molecule, how does the “activity change, negative = growth inhibition” value read?
The value was inactive: 22.6%.

With `CCOC(=O)c1cc(S(=O)(=O)N2CCN(c3ccccc3)CC2)[nH]n1` as the molecule, how does the Potency read?
Its Potency is inconclusive [inhibitor, single point].

Which Potency does the source give for `Cc1ccc(S(=O)(=O)N2CCN(C(=O)c3cc4c(C)nn(-c5ccccc5C)c4s3)CC2)cc1` here?
The Potency was inconclusive [inhibitor, single point].

Which Potency does the source give for `O=C(Nc1ccccc1)c1nnsc1S(=O)(=O)c1ccc(Cl)cc1` here?
Its Potency is active: 2.59 µM.

For `O=C(CSc1ccc(-c2ccccn2)nn1)NCc1ccc(Cl)cc1`, which Potency is on record?
The Potency was inconclusive [inhibitor, single point].

For `COC(=O)C1=C(O)/C(=C\c2ccc(CNS(=O)(=O)c3ccccc3)o2)N=C1C`, which Potency is on record?
Its Potency is inconclusive [inhibitor, partial curve, poor fit].

For `CCOc1ccc(S(=O)(=O)Nc2cc(SCC(=O)O)c(O)c3ccccc23)cc1`, which Potency is on record?
The Potency was active: 4.61 µM.

Which “activity change, negative = growth inhibition” value does the source give for `C[C@@H](NC(=O)[C@@H]1Cc2ccccc2CN1C(=O)OC(C)(C)C)C(=O)NC1CCCCC1` here?
The value was inactive: -3.2%.

Which Potency does the source give for `Cc1ccc2c(CN3CCN(S(=O)(=O)c4ccccc4C(F)(F)F)CC3)cc(=O)oc2c1` here?
The Potency was inconclusive [inhibitor, single point].

Which “activity change, negative = growth inhibition” value does the source give for `CC(C)Oc1ccc(C(=O)OCC(=O)NC(=O)NC2CCCC2)cc1` here?
Its value is inactive: 13.5%.

For `CCOc1ccc(/C=N/NC(=O)c2ccccc2Cl)cc1CN1CC2CC(C1)c1cccc(=O)n1C2` (configuration not stated), which Potency is on record?
The Potency was inconclusive [inhibitor, single point].

Which Potency does the source give for `Cc1ccc(OC(C)C(=O)Nc2nonc2-c2ccc(Br)cc2)cc1C` (configuration not stated) here?
Its Potency is active: 18.4 µM.

Which Potency does the source give for `COc1ccc2[nH]c3c(c2c1)CCN1C(=O)N([C@@H](C)C(=O)NCc2ccccc2)C(=O)[C@]31C` here?
The Potency was inconclusive [inhibitor, single point].

Which “activity change, negative = growth inhibition” value does the source give for `Cc1n[nH]c(C)c1NC(=O)CSc1nnnn1-c1cccc(F)c1` here?
Its value is inactive: 10.1%.

With `COCCNc1ncnc2ccc(-c3c(C)noc3C)cc12` as the molecule, how does the Potency read?
The Potency was inconclusive [inhibitor, partial curve, poor fit].

For `c1ccc(CNc2c3ccccc3nc3ccccc23)cc1`, which Potency is on record?
Its Potency is active: 18.4 µM.

For `CCc1nnc2c3ccccc3nc(Nc3ccc(C(C)=O)cc3)n12`, which Potency is on record?
Its Potency is active: 7.31 µM.

For `COc1ccc(NC(=O)c2ccc3c(c2)N(C)CCS3)cc1`, which Potency is on record?
Its Potency is inconclusive [inhibitor, single point].

With `Cc1cc(C)c(S(=O)(=O)N2CCN(C(=O)c3ccc4c(c3)OCO4)CC2)c(C)c1` as the molecule, how does the Potency read?
Its Potency is inconclusive [inhibitor, partial curve, poor fit].

For `Nc1c(C(=O)Nc2ccc3c(c2)OCCO3)nnn1Cc1cccc(F)c1`, which Potency is on record?
Its Potency is inconclusive [inhibitor, single point].

Which activity change, negative = growth inhibition does the source give for `O=C(CSc1ccc(-c2ccc(Br)cc2)nn1)N1CCOCC1` here?
The activity change, negative = growth inhibition was inconclusive: -30.5% [inhibitor].

For `CC(O)(CC(=O)CC(=O)c1ccccc1)c1ccccc1` (configuration not stated), which Potency is on record?
The Potency was inconclusive [inhibitor, single point].

For `CCOc1ccccc1NC(=O)CSc1nc2c(oc3ccccc32)c(=O)n1-c1ccc(C)c(C)c1`, which Potency is on record?
Its Potency is inconclusive [inhibitor, partial curve].

For `CCOC(=O)Cc1csc(NC(=O)c2ccc(OC)c(OC)c2)n1`, which Potency is on record?
The Potency was inconclusive [inhibitor, single point].

Which “activity change, negative = growth inhibition” value does the source give for `CCN(CC)CCN(C(=O)c1ccc(S(=O)(=O)N(C)C2CCCCC2)cc1)c1nc2ccc(OC)cc2s1` here?
Its value is inactive: -4.86%.

With `COc1ccccc1N1CCN(S(=O)(=O)CCNC(=O)c2ccc(Br)o2)CC1` as the molecule, how does the “activity change, negative = growth inhibition” value read?
The value was inactive: -27.4%.

With `Fc1ccccc1-c1nc2nc3ccccc3nc2n1CC1CCCO1` (configuration not stated) as the molecule, how does the Potency read?
Its Potency is inconclusive [inhibitor, single point].

Which “activity change, negative = growth inhibition” value does the source give for `Cc1cccn2c(=O)c3cc(C#N)c(=N)n(CCCN4CCOCC4)c3nc12` here?
The value was inactive: -19.9%.

For `Cc1ccc(Nc2c(-c3c[nH]c4ccccc34)nc3cc(C)ccn23)cc1`, which Potency is on record?
Its Potency is active: 23.1 µM.

For `Cc1ccc2cc(C=C(C#N)C#N)c(N3CCCCC3)nc2c1`, which Potency is on record?
The Potency was inconclusive [inhibitor, single point].

Which Potency does the source give for `CCc1ccc(OCc2n[nH]c(=S)n2C(C)CCCC(C)C)cc1` (configuration not stated) here?
The Potency was inconclusive [inhibitor, single point].

For `S=C(NCCc1ccc(Cl)cc1)Nc1ccc(Cl)cc1Cl`, which Potency is on record?
Its Potency is inconclusive [inhibitor, single point].

For `COc1ccc(-c2c(C(=O)c3ccccc3)[nH]c(N)c2C(=O)NCc2ccccc2)cc1OC`, which Potency is on record?
The Potency was inconclusive [inhibitor, single point].

Which Potency does the source give for `O=C1N(Cc2cccc(Cl)c2)C[C@@H]2C[C@@H](c3c[nH]c4ccccc34)N3CCC[C@@]123` here?
Its Potency is active: 14.6 µM.

Which “activity change, negative = growth inhibition” value does the source give for `Cc1ccc(-c2ccc(/C=N/NC(=O)Cc3nnc(N)s3)o2)cc1Cl` here?
The value was inactive: -28.8%.

With `CC(=O)Nc1ccc(OC(=O)c2ccc(Br)c([N+](=O)[O-])c2)cc1` as the molecule, how does the “activity change, negative = growth inhibition” value read?
The value was inactive: -27.3%.

With `CSc1ncnc2c1ncn2CCCNCc1ccc2c(c1)OCO2` as the molecule, how does the “activity change, negative = growth inhibition” value read?
Its value is inactive: -16%.

Which Potency does the source give for `COc1ccc(C(=O)NCC(c2cccnc2)N2CCc3ccccc32)cc1` (configuration not stated) here?
Its Potency is inconclusive [inhibitor, full curve, poor fit].

Which Potency does the source give for `C=C1C=C(C)n2ncc(C(=O)Nc3ccc(NC(C)=O)c(Cl)c3)c2N1` here?
Its Potency is inconclusive [inhibitor, single point].

For `COc1cc2c(cc1OC)CN(C(=O)Cn1ccccc1=O)CC2`, which “activity change, negative = growth inhibition” value is on record?
Its value is inactive: -4.34%.

With `CCOC(=O)CC(NS(=O)(=O)c1ccc2[nH]c3c(c2c1)CCCC3)c1ccccc1Cl` (configuration not stated) as the molecule, how does the Potency read?
Its Potency is inconclusive [inhibitor, single point].

With `Cc1cc(-n2c(SCC(=O)NCCC3=CCCCC3)nc3n[nH]c(C)c3c2=N)ccc1Cl` as the molecule, how does the Potency read?
Its Potency is active: 8.2 µM.

Which Potency does the source give for `O=C(NCC(c1ccco1)N1CCN(c2ccc(F)cc2)CC1)c1ccco1` (configuration not stated) here?
Its Potency is inconclusive [inhibitor, single point].

Which Potency does the source give for `CCCCOc1ccc(CSc2nc(C)[nH]c2[N+](=O)[O-])cc1[N+](=O)[O-]` here?
Its Potency is inconclusive [inhibitor, partial curve, poor fit].

With `O=C(Nc1cccc2ccccc12)c1ccc([N+](=O)[O-])cc1` as the molecule, how does the Potency read?
The Potency was inconclusive [inhibitor, single point].

For `CCN(C(=O)COC(=O)c1ccc([N+](=O)[O-])o1)c1cccc2ccccc12`, which “activity change, negative = growth inhibition” value is on record?
The value was inactive: -4.59%.

For `COc1ccc(Br)cc1C=NNS(=O)(=O)c1ccc(C)cc1`, which Potency is on record?
Its Potency is active: 7.31 µM.

For `O=C(COc1ccc(Cl)cc1Cl)NNC(=S)Nc1ccc(F)cc1`, which “activity change, negative = growth inhibition” value is on record?
Its value is inactive: -17.3%.

Which activity change, negative = growth inhibition does the source give for `Cc1ccc(C)n1-c1sc2c(c1C#N)CCC(C)C2` (configuration not stated) here?
The activity change, negative = growth inhibition was inconclusive: -31.9% [inhibitor].

For `Cc1cccc(N(C(=O)c2sc(C)nc2C)C(C(=O)NCC2CCCO2)c2ccccc2)c1` (configuration not stated), which Potency is on record?
The Potency was inconclusive [inhibitor, partial curve].

Which Potency does the source give for `CSc1c(C#N)c(N)nc2sc(C(=O)c3ccc(Cl)c(Cl)c3)c(N)c12` here?
The Potency was inconclusive [inhibitor, single point].

With `COc1ccc(Cl)cc1S(=O)(=O)Nc1noc2ccccc12` as the molecule, how does the “activity change, negative = growth inhibition” value read?
The value was inactive: -0.0275%.

With `Cc1ccccc1N/N=C/c1sc(=O)n(Cc2cccc(C(=O)O)c2)c1Cl` as the molecule, how does the Potency read?
Its Potency is active: 20.6 µM.

With `Cc1ccc(NC(=O)c2cc(C)nc3ccccc23)c(C)c1` as the molecule, how does the Potency read?
The Potency was inconclusive [inhibitor, single point].

For `Cc1cccc(NC(=O)c2oc3ccccc3c2NC(=O)Cc2coc3c(C)c(C)ccc23)c1`, which Potency is on record?
Its Potency is inconclusive [inhibitor, single point].

With `CC1=C(c2ccc(C)c(C)c2)S(=O)(=O)N(Cc2ccc(C(=O)NCc3cccc(C)c3)cc2)C1=O` as the molecule, how does the Potency read?
Its Potency is inconclusive [inhibitor, single point].

With `O=C(CCC1N=C2c3ccccc3N=C(SCc3ccc(F)cc3)N2C1=O)NCc1cccs1` (configuration not stated) as the molecule, how does the “activity change, negative = growth inhibition” value read?
Its value is inactive: -6.63%.

Which “activity change, negative = growth inhibition” value does the source give for `COc1ccc(-c2cc3nc(C)cc(C)n3n2)cc1` here?
Its value is inactive: -25.2%.

For `COc1ccc(C2=NOC(Cn3nc(C(=O)NCc4ccc(OC(F)(F)F)cc4)cc3-c3ccccc3)C2)cc1` (configuration not stated), which Potency is on record?
Its Potency is inconclusive [inhibitor, single point].

For `CCOC(=O)C1=C(CS(=O)(=O)c2cccc(C(F)(F)F)c2)NC(=O)NC1c1cccc(OC)c1` (configuration not stated), which Potency is on record?
The Potency was inconclusive [inhibitor, single point].

For `COc1cc(OC)cc(-c2nnc(SCc3cccc(C(=O)O)c3)o2)c1`, which “activity change, negative = growth inhibition” value is on record?
Its value is inactive: 3.13%.

For `Cc1ccc(SCc2nc3ccccc3[nH]2)cc1`, which Potency is on record?
Its Potency is inconclusive [inhibitor, single point].

With `CC1(C)CC2(CC(c3ccccc3F)c3cc(Cl)c(O)cc3O2)NC(=S)N1` (configuration not stated) as the molecule, how does the Potency read?
Its Potency is active: 3.66 µM.

With `CCC(C(=O)Nc1cc(Cl)ccc1OC)n1nc(-c2ccccc2)ccc1=O` (configuration not stated) as the molecule, how does the Potency read?
The Potency was inconclusive [inhibitor, single point].

For `CCCNC(=O)CCn1c(=S)oc2ccccc21`, which Potency is on record?
Its Potency is inconclusive [inhibitor, single point].

For `Cc1nc(-c2ccccc2)cc(N2CCCC2)n1`, which “activity change, negative = growth inhibition” value is on record?
The value was inactive: -15%.

For `COC(=O)c1[nH]nc(C(=O)OC(C)(C)C)c1-c1ccccc1`, which Potency is on record?
The Potency was active: 13 µM.

For `COc1ccc(COC(=O)N/N=C/c2cccs2)cc1`, which “activity change, negative = growth inhibition” value is on record?
Its value is inactive: -11.2%.

For `Fc1ccc(C(Nc2ccccn2)c2c[nH]c3ccccc23)cc1` (configuration not stated), which Potency is on record?
Its Potency is inconclusive [inhibitor, single point].

With `Cn1nc([N+](=O)[O-])c(C(C#N)c2ccccn2)c(Cl)c1=O` (configuration not stated) as the molecule, how does the Potency read?
Its Potency is active: 3.66 µM.

Which activity change, negative = growth inhibition does the source give for `C/C(N)=C(/C#N)C(=O)COC(=O)c1oc2ccccc2c1COC(C)C` here?
The activity change, negative = growth inhibition was inconclusive: -30.9% [inhibitor].

Which Potency does the source give for `COc1cc(NC(=O)[C@H](C)NC(=O)N2CCn3c2nc2ccccc23)cc(OC)c1` here?
Its Potency is inconclusive [inhibitor, single point].
